Data published in the supplement of paper PMC6657886.
MIC of clinical N. gonorrhoeae isolates (2015-2017) by agar dilution on GC agar with 1% IsoVitaleX (ranges not stated); higher = less susceptible. No active / inactive call per row; the paper counts benzylpenicillin above 1 and ceftriaxone above 0.125 mg/L as resistant (EUCAST). The method is stated for benzylpenicillin and ceftriaxone and assumed for the other drugs. '<=' is inferred from pile-ups at the end values. Isolates are numbered anew.

What was measured:
Test in all cases: Agar dilution on enriched GC agar; resistance determinants by microarray.
tetracycline = compound: CN(C)[C@@H]1C(O)=C(C(N)=O)C(=O)[C@@]2(O)C(O)=C3C(=O)c4c(O)cccc4[C@@](C)(O)[C@H]3C[C@@H]12 [tetracycline]
azithromycin = compound: CC[C@H]1OC(=O)[C@H](C)[C@@H](O[C@H]2C[C@@](C)(OC)[C@@H](O)[C@H](C)O2)[C@H](C)[C@@H](O[C@@H]2O[C@H](C)C[C@H](N(C)C)[C@H]2O)[C@](C)(O)C[C@@H](C)CN(C)[C@H](C)[C@@H](O)[C@]1(C)O [azithromycin]
benzylpenicillin = compound: CC1(C)S[C@@H]2[C@H](NC(=O)Cc3ccccc3)C(=O)N2[C@H]1C(=O)O [benzylpenicillin]
spectinomycin = compound: CN[C@@H]1[C@H](O)[C@H](NC)[C@H]2O[C@@]3(O)C(=O)C[C@@H](C)O[C@H]3O[C@@H]2[C@H]1O [spectinomycin]
ceftriaxone = compound: CO/N=C(\C(=O)N[C@@H]1C(=O)N2C(C(=O)O)=C(CSc3nc(=O)c(O)nn3C)CS[C@H]12)c1csc(N)n1 [ceftriaxone]

Test System	MIC (tetracycline)	MIC (azithromycin)	MIC (benzylpenicillin)	MIC (spectinomycin)	MIC (ceftriaxone)
Neisseria gonorrhoeae isolate 258 (blaTEM plasmid: no, gyrA: wild type, mtrR promoter: wild type, parC: wild type, penA: ins345Asp, ponA: wild type, porB: wild type, rpsJ: wild type, tetM plasmid: no)	0.25 µg/mL	0.06 µg/mL	0.06 µg/mL	32 µg/mL	0.004 µg/mL
Neisseria gonorrhoeae isolate 42 (blaTEM plasmid: no, gyrA: wild type, mtrR promoter: wild type, parC: wild type, penA: wild type, ponA: wild type, porB: wild type, rpsJ: wild type, tetM plasmid: no)	0.06 µg/mL	0.06 µg/mL	≤ 0.015 µg/mL	8 µg/mL	≤ 0.002 µg/mL
Neisseria gonorrhoeae isolate 426 (blaTEM plasmid: no, gyrA: wild type, mtrR promoter: wild type, parC: wild type, penA: ins345Asp, ponA: wild type, porB: wild type, rpsJ: wild type, tetM plasmid: no)	0.5 µg/mL	0.015 µg/mL	0.06 µg/mL	32 µg/mL	≤ 0.002 µg/mL
Neisseria gonorrhoeae isolate 308 (blaTEM plasmid: no, gyrA: wild type, mtrR promoter: -35delA, parC: wild type, penA: ins345Asp, ponA: Pro421, porB: wild type, rpsJ: Met57, tetM plasmid: no)	0.5 µg/mL	0.12 µg/mL	0.03 µg/mL	16 µg/mL	≤ 0.002 µg/mL
Neisseria gonorrhoeae isolate 65 (blaTEM plasmid: no, gyrA: Phe91, Asn95, mtrR promoter: wild type, parC: wild type, penA: ins345Asp, ponA: Pro421, porB: Asn120, Asp121, rpsJ: wild type, tetM plasmid: no)	4 µg/mL	0.25 µg/mL	2 µg/mL	16 µg/mL	0.015 µg/mL
Neisseria gonorrhoeae isolate 339 (blaTEM plasmid: no, gyrA: wild type, mtrR promoter: wild type, parC: wild type, penA: ins345Asp, ponA: wild type, porB: wild type, rpsJ: wild type, tetM plasmid: no)	0.06 µg/mL	0.03 µg/mL	0.06 µg/mL	8 µg/mL	0.004 µg/mL
Neisseria gonorrhoeae isolate 313 (blaTEM plasmid: no, gyrA: wild type, mtrR promoter: wild type, parC: wild type, penA: ins345Asp, ponA: wild type, porB: wild type, rpsJ: wild type, tetM plasmid: no)	0.06 µg/mL	0.015 µg/mL	0.12 µg/mL	32 µg/mL	0.008 µg/mL
Neisseria gonorrhoeae isolate 328 (blaTEM plasmid: no, gyrA: Thr91, Gly95, mtrR promoter: wild type, parC: wild type, penA: wild type, ponA: wild type, porB: wild type, rpsJ: wild type, tetM plasmid: no)	0.5 µg/mL	0.25 µg/mL	≤ 0.015 µg/mL	32 µg/mL	≤ 0.002 µg/mL
Neisseria gonorrhoeae isolate 133 (blaTEM plasmid: no, gyrA: wild type, mtrR promoter: wild type, parC: wild type, penA: ins345Asp, ponA: wild type, porB: wild type, rpsJ: wild type, tetM plasmid: no)	0.12 µg/mL	0.06 µg/mL	0.06 µg/mL	16 µg/mL	0.008 µg/mL
Neisseria gonorrhoeae isolate 323 (blaTEM plasmid: no, gyrA: Phe91, Gly95, mtrR promoter: wild type, parC: Arg87, Glu91, penA: ins345Asp, ponA: Pro421, porB: Asp120, Ala121, rpsJ: Met57, tetM plasmid: no)	0.5 µg/mL	0.008 µg/mL	0.5 µg/mL	32 µg/mL	0.008 µg/mL
Neisseria gonorrhoeae isolate 342 (blaTEM plasmid: no, gyrA: Ser91, Asn95, mtrR promoter: wild type, parC: wild type, penA: wild type, ponA: wild type, porB: wild type, rpsJ: wild type, tetM plasmid: no)	0.12 µg/mL	0.25 µg/mL	≤ 0.015 µg/mL	32 µg/mL	≤ 0.002 µg/mL
Neisseria gonorrhoeae isolate 326 (blaTEM plasmid: no, gyrA: wild type, mtrR promoter: wild type, parC: wild type, penA: wild type, ponA: wild type, porB: wild type, rpsJ: wild type, tetM plasmid: no)	0.5 µg/mL	0.12 µg/mL	0.03 µg/mL	64 µg/mL	0.03 µg/mL
Neisseria gonorrhoeae isolate 284 (blaTEM plasmid: no, gyrA: Thr91, Gly95, mtrR promoter: wild type, parC: wild type, penA: ins345Asp, ponA: Pro421, porB: wild type, rpsJ: Met57, tetM plasmid: no)	0.5 µg/mL	0.015 µg/mL	0.06 µg/mL	16 µg/mL	≤ 0.002 µg/mL
Neisseria gonorrhoeae isolate 427 (blaTEM plasmid: no, gyrA: wild type, mtrR promoter: wild type, parC: wild type, penA: wild type, ponA: wild type, porB: wild type, rpsJ: wild type, tetM plasmid: no)	0.25 µg/mL	0.25 µg/mL	≤ 0.015 µg/mL	32 µg/mL	≤ 0.002 µg/mL
Neisseria gonorrhoeae isolate 274 (blaTEM plasmid: no, gyrA: Phe91, Asn95, mtrR promoter: -35delA, parC: wild type, penA: ins345Asp, ponA: Pro421, porB: Asn120, Asp121, rpsJ: Met57, tetM plasmid: no)	0.5 µg/mL	0.12 µg/mL	1 µg/mL	8 µg/mL	0.008 µg/mL
Neisseria gonorrhoeae isolate 3 (blaTEM plasmid: no, gyrA: Thr91, Gly95, mtrR promoter: wild type, parC: wild type, penA: ins345Asp, ponA: wild type, porB: wild type, rpsJ: wild type, tetM plasmid: no)	0.12 µg/mL	0.015 µg/mL	0.12 µg/mL	32 µg/mL	≤ 0.002 µg/mL
Neisseria gonorrhoeae isolate 148 (blaTEM plasmid: no, gyrA: Phe91, Asn95, mtrR promoter: wild type, parC: Arg 87, Glu91, penA: ins345Asp, ponA: Pro421, porB: Gly120, Gly121, rpsJ: Met57, tetM plasmid: no)	0.5 µg/mL	0.25 µg/mL	1 µg/mL	32 µg/mL	≤ 0.002 µg/mL
Neisseria gonorrhoeae isolate 485 (blaTEM plasmid: yes, gyrA: Phe91, Asp95, mtrR promoter: wild type, parC: wild type, penA: ins345Asp, ponA: wild type, porB: wild type, rpsJ: Met57, tetM plasmid: yes)	16 µg/mL	0.06 µg/mL	≥ 32 µg/mL	8 µg/mL	≤ 0.002 µg/mL
Neisseria gonorrhoeae isolate 139 (blaTEM plasmid: no, gyrA: Phe91, Asn95, mtrR promoter: wild type, parC: wild type, penA: ins345Asp, ponA: Pro421, porB: wild type, rpsJ: Met57, tetM plasmid: no)	0.25 µg/mL	0.004 µg/mL	0.25 µg/mL	32 µg/mL	0.015 µg/mL
Neisseria gonorrhoeae isolate 141 (blaTEM plasmid: no, gyrA: wild type, mtrR promoter: wild type, parC: wild type, penA: ins345Asp, ponA: wild type, porB: wild type, rpsJ: wild type, tetM plasmid: no)	0.12 µg/mL	0.06 µg/mL	0.06 µg/mL	16 µg/mL	≤ 0.002 µg/mL
Neisseria gonorrhoeae isolate 356 (blaTEM plasmid: no, gyrA: wild type, mtrR promoter: wild type, parC: wild type, penA: ins345Asp, ponA: wild type, porB: wild type, rpsJ: wild type, tetM plasmid: no)	0.12 µg/mL	0.008 µg/mL	0.5 µg/mL	32 µg/mL	≤ 0.002 µg/mL
Neisseria gonorrhoeae isolate 220 (blaTEM plasmid: no, gyrA: Phe91, Asn95, mtrR promoter: -35delA, parC: Arg87, Glu91, penA: ins345Asp, ponA: Pro421, porB: Asn120, Asp121, rpsJ: Met57, tetM plasmid: no)	2 µg/mL	0.25 µg/mL	0.5 µg/mL	16 µg/mL	0.015 µg/mL
Neisseria gonorrhoeae isolate 452 (blaTEM plasmid: no, gyrA: wild type, mtrR promoter: wild type, parC: wild type, penA: ins345Asp, ponA: wild type, porB: wild type, rpsJ: wild type, tetM plasmid: no)	0.25 µg/mL	0.008 µg/mL	0.06 µg/mL	32 µg/mL	≤ 0.002 µg/mL
Neisseria gonorrhoeae isolate 176 (blaTEM plasmid: no, gyrA: wild type, mtrR promoter: wild type, parC: wild type, penA: ins345Asp, ponA: wild type, porB: wild type, rpsJ: wild type, tetM plasmid: no)	0.5 µg/mL	0.03 µg/mL	≤ 0.015 µg/mL	32 µg/mL	≤ 0.002 µg/mL
Neisseria gonorrhoeae isolate 20 (blaTEM plasmid: no, gyrA: wild type, mtrR promoter: wild type, parC: wild type, penA: ins345Asp, ponA: wild type, porB: wild type, rpsJ: wild type, tetM plasmid: no)	0.12 µg/mL	0.12 µg/mL	0.06 µg/mL	16 µg/mL	0.008 µg/mL
